A value given as a limit tells only on which side of the number the result lay.

One assay deals with T1, androgen receptor (AR) isolated from rat ventral prostate (Rattus norvegicus, UniProt P15207).
T1 sequence (P15207 1-902): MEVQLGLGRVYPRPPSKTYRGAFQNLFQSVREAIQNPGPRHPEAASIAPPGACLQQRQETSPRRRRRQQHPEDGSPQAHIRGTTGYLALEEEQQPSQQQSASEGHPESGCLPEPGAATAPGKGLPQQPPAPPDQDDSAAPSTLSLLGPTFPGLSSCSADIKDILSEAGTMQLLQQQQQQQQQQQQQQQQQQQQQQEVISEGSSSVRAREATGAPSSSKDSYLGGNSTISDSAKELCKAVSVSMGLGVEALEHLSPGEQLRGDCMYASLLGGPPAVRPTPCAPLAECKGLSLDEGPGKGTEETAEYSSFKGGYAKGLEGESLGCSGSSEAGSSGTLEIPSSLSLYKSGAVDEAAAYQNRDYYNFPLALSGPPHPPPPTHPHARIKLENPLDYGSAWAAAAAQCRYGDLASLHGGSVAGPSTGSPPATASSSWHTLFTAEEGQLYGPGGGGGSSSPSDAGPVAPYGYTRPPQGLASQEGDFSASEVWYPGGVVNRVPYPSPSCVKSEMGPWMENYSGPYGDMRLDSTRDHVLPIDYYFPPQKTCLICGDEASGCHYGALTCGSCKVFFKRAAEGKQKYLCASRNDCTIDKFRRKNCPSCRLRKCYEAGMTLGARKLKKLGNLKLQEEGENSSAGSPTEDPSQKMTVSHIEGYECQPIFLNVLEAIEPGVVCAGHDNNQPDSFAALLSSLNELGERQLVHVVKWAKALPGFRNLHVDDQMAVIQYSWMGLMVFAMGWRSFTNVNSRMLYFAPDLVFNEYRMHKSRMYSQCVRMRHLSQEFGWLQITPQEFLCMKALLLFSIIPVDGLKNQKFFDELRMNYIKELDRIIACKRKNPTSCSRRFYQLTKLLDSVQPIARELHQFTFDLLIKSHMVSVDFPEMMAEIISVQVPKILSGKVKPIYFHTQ
In words: biochemical. The class given is binding.
Settings: not given
Molecule `C[C@](O)(COc1ccc(F)cc1)C(=O)Nc1ccc(Cl)c(C(F)(F)F)c1` [Compound 10] registered a Ki of 14.5 ± 0.18 nM.

`C[C@](O)(COc1ccc(F)cc1)C(=O)Nc1ccc(F)c(C(F)(F)F)c1` [Compound 11] came in with a Ki of 32.6 ± 0.1 nM.

As to `C[C@](O)(COc1ccc(F)cc1)C(=O)Nc1ccc(I)c(C(F)(F)F)c1` [Compound 12], the Ki came to 15.6 ± 0.19 nM.

In turn, `C[C@](O)(COc1ccc(Br)cc1)C(=O)Nc1ccc(Br)c(C(F)(F)F)c1` [Compound 14] displayed a Ki of 25.9 ± 0.04 nM.

`C[C@](O)(COc1ccc(F)cc1)C(=O)Nc1ccc([N+](=O)[O-])c2nonc12` [Compound 17] had a Ki greater than 1800 nM.

The assay is the same for the next values; noted with them: Table 1, B-ring halogenated SARMs; read-out: Ki.
On to `C[C@](O)(COc1ccc(Br)cc1)C(=O)Nc1ccc([N+](=O)[O-])c(C(F)(F)F)c1` [Compound 3], for which the Ki turned out to be 12.6 ± 1.8 nM.

For `C[C@](O)(COc1ccc(I)cc1)C(=O)Nc1ccc([N+](=O)[O-])c(C(F)(F)F)c1` [Compound 4], the Ki was determined as 23 ± 1.6 nM.

The assay is the same for the next values; noted with them: Table 5 (Example 4); read-out: Ki.
For the molecule `C[C@](O)(COc1ccc(F)cc1)C(=O)Nc1ccc(C#N)c(Cl)c1` [Compound 7], the Ki amounted to 4.5 ± 0.11 nM.

As to `CC(=O)Nc1ccc(OC[C@](C)(O)C(=O)Nc2ccc(C#N)c(C(F)(F)F)c2)cc1` [Compound 8], the Ki turned out to be 12.7 ± 0.03 nM.

Turning to `C[C@](O)(CBr)C(=O)Nc1ccc(Cl)c(C(F)(F)F)c1` [Compound 9], the Ki is 22.2 ± 0.17 nM.

`C[C@](O)(COc1ccc(F)cc1)C(=O)Nc1cccc(C(F)(F)F)c1` [Compound 15]: the Ki came out at 62 ± 0.05 nM.

On to `C[C@](O)(COc1ccc(F)cc1)C(=O)Nc1ccc(C#N)c(I)c1` [Compound 16], for which the Ki is 3.5 ± 0.13 nM.

For the molecule `C[C@](O)(COc1ccc2[nH]ccc2c1)C(=O)Nc1ccc([N+](=O)[O-])c(C(F)(F)F)c1` [Compound 20], the Ki is 17 ± 0.64 nM.

Still in this assay, the particulars now being: […], 3H-mibolerone, rat ventral prostate AR.
`C[C@](O)(COc1ccc([N+](=O)[O-])cc1)C(=O)Nc1ccc([N+](=O)[O-])c(C(F)(F)F)c1` [Compound N-1] yielded an RBA of 30%.

`C[C@](O)(COc1ccc(C#N)cc1)C(=O)Nc1ccc([N+](=O)[O-])c(C(F)(F)F)c1` [Compound N-2] showed an RBA of 26%.

In the case of `C[C@](O)(COc1ccc([N+](=O)[O-])cc1)C(=O)Nc1ccc(C#N)c(C(F)(F)F)c1` [Compound N-3], the RBA is on record as 32%.

Turning to `C[C@](O)(COc1ccc(C#N)cc1)C(=O)Nc1ccc(C#N)c(C(F)(F)F)c1` [Compound N-4], the RBA is recorded as 17%.
